For test [1], the target named is T1, HOS5-FLAG expressed in tobacco (N. benthamiana) leaves (Arabidopsis) (UniProt Q8W4B1).
T1 sequence: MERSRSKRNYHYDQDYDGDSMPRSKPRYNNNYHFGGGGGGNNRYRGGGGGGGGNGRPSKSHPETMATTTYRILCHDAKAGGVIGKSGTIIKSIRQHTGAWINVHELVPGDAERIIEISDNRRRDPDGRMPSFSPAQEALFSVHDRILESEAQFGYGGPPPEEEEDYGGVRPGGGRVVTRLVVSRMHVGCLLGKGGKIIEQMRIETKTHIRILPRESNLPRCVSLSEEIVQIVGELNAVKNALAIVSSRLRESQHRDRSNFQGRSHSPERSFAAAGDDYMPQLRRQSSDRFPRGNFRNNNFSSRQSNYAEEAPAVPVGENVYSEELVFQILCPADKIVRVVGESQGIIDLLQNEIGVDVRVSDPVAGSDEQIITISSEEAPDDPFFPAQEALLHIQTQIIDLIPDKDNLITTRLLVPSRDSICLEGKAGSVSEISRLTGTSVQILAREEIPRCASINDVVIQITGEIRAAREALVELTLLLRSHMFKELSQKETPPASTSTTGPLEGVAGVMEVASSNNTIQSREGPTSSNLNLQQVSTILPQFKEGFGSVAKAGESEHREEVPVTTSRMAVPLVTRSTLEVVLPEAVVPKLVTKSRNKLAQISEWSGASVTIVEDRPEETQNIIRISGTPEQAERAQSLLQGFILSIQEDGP
Put plainly: co-IP; HOS5-FLAG with RS40-Myc or RS41-Myc expressed in pairs in N. benthamiana leaves; precipitated with anti-FLAG M2 beads (normal IgG as control), blot with anti-Myc.

Test [2] concerns the target T2, HOS5 fused to EYFP-N or EYFP-C (BiFC) (Arabidopsis) (UniProt Q8W4B1).
T2 sequence: T1 sequence
Put plainly: split reporter; BiFC with EYFP-N and EYFP-C fusions in Arabidopsis protoplasts.

The target in test [3] is T3, HOS5 (High Osmotic Stress Gene Expression 5), full length, yeast two-hybrid fusion (Arabidopsis) (UniProt Q8W4B1).
T3 sequence: T1 sequence
Put plainly: two-hybrid; pairwise in yeast strain AH109: HOS5 in pBD (pGBK), FRY2 in pAD (pGAD); deletion constructs and hos5-1 against the full-length partner; growth on -TLHA medium plus X-alpha-Gal, -TL as transformation control.

Test [4] addresses T4, RS40 fused to EYFP-N or EYFP-C (BiFC) (Arabidopsis) (UniProt P92965).
T4 sequence: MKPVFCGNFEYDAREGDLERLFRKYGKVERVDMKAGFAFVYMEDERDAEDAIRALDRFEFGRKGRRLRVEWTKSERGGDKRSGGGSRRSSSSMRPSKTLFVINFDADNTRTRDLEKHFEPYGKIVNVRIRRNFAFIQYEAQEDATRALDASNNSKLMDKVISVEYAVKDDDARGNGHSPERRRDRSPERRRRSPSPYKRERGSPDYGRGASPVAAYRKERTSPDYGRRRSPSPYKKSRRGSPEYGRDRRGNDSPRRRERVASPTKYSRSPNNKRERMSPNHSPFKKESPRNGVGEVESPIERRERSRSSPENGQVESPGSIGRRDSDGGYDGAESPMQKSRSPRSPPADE
Put plainly: split reporter; BiFC with EYFP-N and EYFP-C fusions in Arabidopsis protoplasts.

Test [5] deals with T5, RS41 fused to EYFP-N or EYFP-C (BiFC) (Arabidopsis) (UniProt P92966).
T5 sequence: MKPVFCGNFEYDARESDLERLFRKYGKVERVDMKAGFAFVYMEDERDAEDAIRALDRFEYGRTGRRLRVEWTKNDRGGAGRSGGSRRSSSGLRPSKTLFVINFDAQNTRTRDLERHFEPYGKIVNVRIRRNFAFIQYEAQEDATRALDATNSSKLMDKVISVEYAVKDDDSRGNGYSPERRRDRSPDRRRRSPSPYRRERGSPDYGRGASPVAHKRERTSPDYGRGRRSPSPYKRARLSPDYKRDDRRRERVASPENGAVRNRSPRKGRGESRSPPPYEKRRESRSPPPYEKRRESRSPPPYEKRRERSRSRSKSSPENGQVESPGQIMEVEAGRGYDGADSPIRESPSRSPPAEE
The description is as above.

Residue numbers refer to the chain shown, from its start. These are yes or no findings as the source states them, for the method shown. For some of these results: In cells and extracts the contact can be indirect. Some binding calls cover weakened binding; strength is not graded here. Tags and fused reporters may be left off the sequences shown.

B1: RS41-Myc expressed in tobacco (N. benthamiana) leaves (protein, UniProt P92966 1-356)
chain: T5 sequence
Consider B1, for which the binding result in test [1] was “binds”.

B2: RS41 fused to EYFP-N or EYFP-C (BiFC) (protein, UniProt P92966 1-356)
chain: T5 sequence
As to B2, in test [2], the binding entry is “binds”.

B3: hos5-1 mutant HOS5 (Gly233 to Ser), yeast two-hybrid fusion (protein, UniProt Q8W4B1 1-652)
chain: T1 sequence with G233S
For B3, in test [3], the binding entry is reported as “binds”.

B4: HOS5 fused to EYFP-N or EYFP-C (BiFC) (protein, UniProt Q8W4B1 1-652)
chain: T1 sequence
In the case of B4, the binding result in test [2] is “binds”.

B5: FRY2 fused to EYFP-N or EYFP-C (BiFC) (protein, UniProt Q5YDB6 1-967)
chain: MYSNNRVEVFHGDGRLGELEIYPSRELNQQQDDVMKQRKKKQREVMELAKMGIRISHFSQSGERCPPLAILTTISSCGLCFKLEASPSPAQESLSLFYSSCLRDNKTAVMLLGGEELHLVAMYSENIKNDRPCFWAFSVAPGIYDSCLVMLNLRCLGIVFDLDETLVVANTMRSFEDKIDGFQRRINNEMDPQRLAVIVAEMKRYQDDKNLLKQYIESDQVVENGEVIKVQSEIVPALSDNHQPLVRPLIRLQEKNIILTRINPMIRDTSVLVRMRPSWEELRSYLTAKGRKRFEVYVCTMAERDYALEMWRLLDPEGNLINTNDLLARIVCVKSGFKKSLFNVFLDGTCHPKMALVIDDRLKVWDEKDQPRVHVVPAFAPYYSPQAEAAATPVLCVARNVACGVRGGFFRDFDDSLLPRIAEISYENDAEDIPSPPDVSHYLVSEDDTSGLNGNKDPLSFDGMADTEVERRLKEAISASSAVLPAANIDPRIAAPVQFPMASASSVSVPVPVQVVQQAIQPSAMAFPSIPFQQPQQPTSIAKHLVPSEPSLQSSPAREEGEVPESELDPDTRRRLLILQHGQDTRDPAPSEPSFPQRPPVQAPPSHVQSRNGWFPVEEEMDPAQIRRAVSKEYPLDSEMIHMEKHRPRHPSFFSKIDNSTQSDRMLHENRRPPKESLRRDEQLRSNNNLPDSHPFYGEDASWNQSSSRNSDLDFLPERSVSATETSADVLHGIAIKCGAKVEYKPSLVSSTDLRFSVEAWLSNQKIGEGIGKSRREALHKAAEASIQNLADGYMRANGDPGPSHRDATPFTNENISMGNANALNNQPFARDETALPVSSRPTDPRLEGSMRHTGSITALRELCASEGLEMAFQSQRQLPSDMVHRDELHAQVEIDGRVVGEGVGSTWDEARMQAAERALSSVRSMLGQPLHKRQGSPRSFGGMSNKRLKPDFQRSLQRMPSSGRYS
B5: the binding entry in test [4], in test [2] and in test [5] was “binds” each time.

B6: RS40-Myc expressed in tobacco (N. benthamiana) leaves (protein, UniProt P92965 1-350)
chain: T4 sequence
Turning to B6, in test [1], the binding entry is on record as “binds”.

B7: RS40 fused to EYFP-N or EYFP-C (BiFC) (protein, UniProt P92965 1-350)
chain: T4 sequence
Regarding B7, the binding entry in test [2] and in test [5] was “binds” in each case.
